The results in this text go back to PubChem BioAssay (NCI).

Test systems include MDA-MB-435; T-47D breast; EKVX NSCLC; MDA-N; OVCAR-8 ovarian; NCI-H522 lung; HL-60(TB) leukemia; U251 CNS; SR leukemia; HOP-92 NSCLC; 786-0 renal; SN12C renal; COLO 205 colon; IGROV1 ovarian; RPMI-8226 leukemia; MALME-3M melanoma; NCI-H23 lung; NCI-H460 lung; SW-620 colon; NCI/ADR-RES ovarian; HCT-15 colon; MOLT-4 leukemia; DLD-1 colon; SNB-78 CNS; MCF7 breast; CAKI-1 renal; SNB-75 CNS; HOP-62 NSCLC; SK-MEL-28 melanoma; PC-3 prostate; SK-OV-3 ovarian; SF-539 CNS; SK-MEL-2 melanoma; OVCAR-3 ovarian; SF-268 CNS; OVCAR-4 ovarian; HCT-116 colon; CCRF-CEM leukemia; A549 NSCLC; M14 melanoma; ACHN renal.

What all share (test): NCI tumour cell line growth inhibition, 48 h

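1) Cells in 96-well plates. 2) Compound, 48 h, 5 concentrations. 3) Linear interpolation between surrounding doses. 4) Unreached endpoint = highest concentration. GI50 = concentration required for 50% inhibition of growth.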 For part of its entries the source gives two or more results. They are shown here; other results are not. There may be further records. For some of these results: Records of one sample usually come from different ranges of test concentrations, which the source does not state; some values may only mark the edge of a range. For some of these results: The records of an entry repeat one measurement in other runs, samples, wells, individuals or studies. Brackets tell where a record comes from. A, B and so on number the origins entry by entry.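 TGI marks complete inhibition of growth.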

As for `CC[C@@]1(O)C(=O)OCc2c1cc1n(c2=O)Cc2c-1nc1cc3c(cc1c2C)OCO3`, the TGI with MDA-MB-435 was 938 nM and 10.5 µM; in the experiment on T-47D breast, 0.244 nM and 16.5 µM; with OVCAR-8 ovarian, 263 nM and 68.5 µM; with NCI-H522 lung, 382 nM and > 100 µM; with HL-60(TB) leukemia, 0.228 nM and > 100 µM; with U251 CNS, 4.69 nM and 109 nM. Besides, the GI50 in the experiment on EKVX NSCLC is 376 nM and 36.5 nM; in the experiment on MDA-N it was 3.93 nM and 333 nM.

For the molecule `CCc1cc2c(cc1N1CCC(N3CCOCC3)CC1)C(C)(C)c1[nH]c3cc(C#N)ccc3c1C2=O`, in the experiment on SR leukemia, the TGI is 216 nM [sample A, mean of 2 tests] and 352 nM [sample B, mean of 2 tests] and 2.61 µM [sample C, 1 test].

Consider `Cc1cc2c(c3oc(C4(C)OC4C4OC4C)cc(=O)c13)C(=O)c1c(O)c(C3CC(C)(N(C)C)C(O)C(C)O3)cc(C3CC(N(C)C)C(O)C(C)O3)c1C2=O` (centres undefined), for which the TGI in the experiment with HOP-92 NSCLC is 4.64 nM, 0.827 nM, > 10 µM; in the experiment with 786-0 renal, 10.1 nM and 0.472 nM; in the experiment on SN12C renal it was 0.339 nM and 6.74 nM; with T-47D breast, 0.959 nM, 3.15 nM, 399 nM; in the experiment on COLO 205 colon, 7.43 nM, 16.6 nM [1 test] and 0.544 nM [mean of 2 tests]; in the experiment on IGROV1 ovarian it was 4.56 nM, 6.52 nM, 86.5 nM. For the same molecule, the TGI in the experiment with MALME-3M melanoma was 24.9 nM [1 test] and 0.557 nM [mean of 2 tests]; in the experiment with NCI-H23 lung it was 0.0616 nM, 0.289 nM, 11.6 nM; with NCI-H460 lung, 1.65 µM and 2.72 nM; with SW-620 colon, 0.164 nM, 17.3 nM, 3.66 nM; in the experiment with NCI/ADR-RES ovarian, 0.461 nM, 0.296 nM, 5.46 nM; in the experiment on HCT-15 colon, 331 nM [mean of 2 tests] and 1.57 nM [mean of 3 tests]. The TGI is 8.11 nM and 124 nM in the experiment on MOLT-4 leukemia; 22.5 nM and 583 nM in the experiment on DLD-1 colon; 29 nM and 462 nM in the experiment with SNB-78 CNS; 0.0732 nM, 10.9 nM, 5.21 nM with MCF7 breast; 0.159 nM and 119 nM in the experiment with CAKI-1 renal; 8.36 nM [1 test] and 0.403 nM [mean of 2 tests] with SNB-75 CNS. Also, the TGI was 0.141 nM, 0.496 nM, 12.7 nM with HOP-62 NSCLC; 10.4 nM, 0.968 nM, 2.51 nM with OVCAR-8 ovarian; 7.97 nM, 0.75 nM, 8.18 nM in the experiment on NCI-H522 lung; 47.2, 5.62, 1.28, 4.41 nM in the experiment on HL-60(TB) leukemia; 0.177 nM, 1.41 nM, > 10 µM with PC-3 prostate; 28.6 nM and 1.58 nM in the experiment with SK-OV-3 ovarian. Further, the TGI in the experiment with U251 CNS is 0.0677 nM, 0.47 nM, 5.51 nM; with SF-539 CNS, 0.172 nM and 3.03 nM; with SK-MEL-2 melanoma it was > 10 µM [1 test] and 0.744 nM, 0.257 nM [mean of 3 tests]; in the experiment on OVCAR-3 ovarian it was 0.575 nM and 86.8 nM; in the experiment on SF-268 CNS, 0.0919, 1.2, 121, 30 nM; in the experiment on OVCAR-4 ovarian, 24.3 nM [mean of 2 tests] and 1.52 nM [mean of 3 tests]. Also, the TGI in the experiment with HCT-116 colon is listed as 5.62 nM, 16.6 nM, 79.8 nM. The GI50 in the experiment on RPMI-8226 leukemia is 0.0573 nM and 3.04 nM; in the experiment with MALME-3M melanoma it was 2.84 nM [1 test] and 0.136 nM [mean of 2 tests]; in the experiment with SNB-75 CNS, 3.66 nM [1 test] and 0.135 nM [mean of 2 tests]; with SK-MEL-28 melanoma, 1.22 nM and 0.121 nM; in the experiment on NCI-H522 lung, 3.68 nM [mean of 2 tests] and 0.166 nM [mean of 3 tests]; in the experiment with OVCAR-4 ovarian, 4.5 nM [mean of 2 tests] and 0.213 nM [mean of 3 tests].

On to `S=C(N/N=C(/c1ccccc1)c1ccccn1)N1CCCCCC1`, for which the TGI in the experiment on T-47D breast is 26.6 nM and 1.92 µM; in the experiment with COLO 205 colon, 15.2 nM and 3.77 µM; in the experiment with SR leukemia, 9.23 nM and > 100 µM; in the experiment on RPMI-8226 leukemia it was 8.8 nM and 19.8 µM; in the experiment on CCRF-CEM leukemia, 607 nM and > 20.1 µM. Besides, the GI50 was < 1 nM and 28 nM in the experiment with SR leukemia; < 1 nM and 30.2 nM with RPMI-8226 leukemia.

`CCCCCCCCCCCCCCCCOP(=O)(O)OP(=O)(O)OCC1OC(n2ccc(N)nc2=O)C(O)C1O` (centres undefined): the GI50 with SR leukemia is > 100 µM [sample A, 1 test] and 1.43 µM [sample B, mean of 2 tests]; in the experiment on NCI-H460 lung, > 100 µM [sample A, mean of 2 tests] and 5.71 µM [sample B, mean of 2 tests]; with MOLT-4 leukemia it was > 100 µM [sample A, mean of 2 tests] and 787 nM [sample B, mean of 2 tests]; in the experiment on HOP-62 NSCLC, > 100 µM [sample A, mean of 2 tests] and 8.65 µM [sample B, mean of 2 tests]; with A549 NSCLC, > 100 µM [sample A, mean of 2 tests] and 7.12 µM [sample B, mean of 2 tests]; in the experiment on CCRF-CEM leukemia, > 100 µM [sample A, mean of 2 tests] and 967 nM [sample B, mean of 2 tests]. In addition, the GI50 is > 100 µM [sample A, mean of 2 tests] and 4.51 µM [sample B, mean of 2 tests] in the experiment with OVCAR-8 ovarian; > 100 µM [sample A, mean of 2 tests] and 8.94 µM [sample B, mean of 2 tests] in the experiment on HL-60(TB) leukemia; > 100 µM [sample A, mean of 2 tests] and 5.33 µM [sample B, mean of 2 tests] in the experiment with M14 melanoma; > 100 µM [sample A, mean of 2 tests] and 9.31 µM [sample B, mean of 2 tests] in the experiment on ACHN renal; > 100 µM [sample A, mean of 2 tests] and 8.89 µM [sample B, 1 test] in the experiment on HCT-116 colon.
